Among the data in PubChem BioAssay AID463173 (ICCB-Longwood Screening Facility, Harvard Medical School, 2010) are survival values, retold here.

Among all 52,000 compounds or so, about 4,300 (8.3%) were called active. Cut-off read from the data, not from the text of the source: active = survival mostly below about 52% (no sharp cut-off); inactive = mostly above about 56%. This is one part of the list.

The assay deals with DeltatarO mutant. Put plainly: growth inhibition of S. aureus wild type versus tarO mutant, primary screen, teichoic acid synthesis inhibitors, RN4220, OD600 (AID 463173). Conditions: OD600, 18 h, active compounds read low, screened at 18.75 µg/mL (by protocol).
Take `CCOc1ccc(CCNC(=O)c2cnc3c(-c4ccccc4)c(C)nn3c2C)cc1OCC`: the survival was active: 20%.

As for `COc1ccc(N2CCN(c3oc(/C=C/c4cccc(OC)c4)nc3C#N)CC2)cc1`, the survival was inactive: 73%.

In the case of `CCc1ccc(CNC(=O)C2CCN(c3nnc(-n4c(C)ccc4C)s3)CC2)cc1`, the survival was inactive: 86%.

On to `O=[N+]([O-])c1ccc(C(c2sc3nc(-c4ccco4)nn3c2O)N2CCC3(CC2)OCCO3)cc1` (stereo not drawn), for which the survival is inactive: 87%.

Consider `CC(C)c1ccc(OCC(=O)Nc2cc(-c3nc4ncccc4o3)ccc2Cl)cc1`, for which the survival was inactive: 150%.

As for `COc1cc(CNCCSc2nnnn2C)ccc1OCc1c(F)cccc1Cl`, the survival is inactive: 58%.

Turning to `Cc1cccc(-c2nnc(SCCC(=O)O)o2)c1`, the survival is inactive: 80%.

Turning to `O=C(CN1CCOCC1)n1c2ccccc2c2ccccc21`, the survival is inactive: 90%.

As to `Cn1c(C(=O)OC(C(=O)NCc2ccccc2)c2ccccc2)cc2sccc21` (stereo not drawn), the survival was inactive: 74%.

Regarding `CCC(=O)Nc1ccc(C)cc1-c1nc2ccccc2n(Cc2ccccc2)c1=O`, the survival was inactive: 76%.

Consider `CCN(C(=O)c1cc2c(Cl)nc3ccc(C)cc3c2s1)c1cc(OC)ccc1OC`, for which the survival is inactive: 61%.

As to `Cc1oc(-c2cccc(Cl)c2)nc1CSCC(=O)O`, the survival was inactive: 75%.

For the compound `COc1ccccc1C(=O)Nc1c(C(=O)Nc2ccc(C)cc2)oc2ccccc12`, the survival was inactive: 84%.

For `CC1(c2ccccc2)CC(C)(C)N(C(=O)c2ccccc2Cl)c2ccccc21` (stereo not drawn), the survival is active: -4%.

With `COc1ccc(NC(=O)C2CCCN2S(=O)(=O)c2ccc3c(c2)CCCC(=O)N3)cc1Cl` (stereo not drawn), the survival is inactive: 75%.

As to `COc1cc(C2CC(=O)Nc3cc4c(cc32)OCCO4)cc(OC)c1O` (stereo not drawn), the survival was inactive: 97%.

Take `CCCCC(=O)Nc1ccc(OCc2cc(=O)n3ccc(C)cc3n2)cc1`: the survival was inactive: 89%.

Take `CCCC1=C(C(=O)OCC)C(c2cccnc2)n2ncnc2N1` (stereo not drawn): the survival is inactive: 79%.

On to `CCCCN(CCCC)c1nc(-c2ccccc2)nc2ccccc12`, for which the survival was inactive: 30%.

Consider `Cc1ccc(OCc2cc(=O)n3ccsc3n2)c(NC(=O)c2ccco2)c1`, for which the survival was inactive: 70%.

`COc1ccc(N(C)C(=O)C2CCN(S(=O)(=O)c3cc(Br)cc4c3N(C(C)=O)CC4)CC2)cc1`: the survival was inactive: 99%.

For `Cn1c(=O)n(C)c2cc(N3CCCCC3)c(NC(=O)c3c(F)cccc3F)cc21`, the survival is inactive: 75%.

With `CCOC(=O)c1cc(-c2ccccc2)n(CCC(=O)NCCc2ccc(OC)c(OC)c2)c1C`, the survival was inactive: 79%.

With `Cc1cccc(NC(=O)c2c(N)sc3c2CCC(C)C3)c1` (stereo not drawn), the survival is inactive: 59%.

For the compound `COc1ccc(-c2cccc(NS(=O)(=O)c3cc(C)ccc3OC)c2)nn1`, the survival was inactive: 122%.

Take `CCc1cccc(C)c1NS(=O)(=O)c1ccc(-c2cc(C)no2)s1`: the survival is inactive: 94%.

Take `O=C(Nc1ccc2nn(-c3ccc(Cl)cc3)nc2c1)c1cc2ccccc2o1`: the survival is inactive: 65%.

Consider `Cc1ccccc1Nc1c(-c2ccc(N3CCOCC3)cc2)nc2ccc(Cl)cn12`, for which the survival was inactive: 106%.

On to `CS(=O)(=O)N1CCN(c2ccc(NC(=O)c3ccc4c(c3)OCO4)cc2)CC1`, for which the survival is inactive: 87%.

On to `Cc1ccccc1NC(=O)c1c(NC(=O)c2cccs2)sc2c1CCC(C)C2` (stereo not drawn), for which the survival is inactive: 59%.

As to `N#Cc1nc(/C=C/c2ccc(F)cc2)oc1NC1CCCCC1`, the survival is inactive: 90%.

Take `O=C(Cn1c(=O)n2nc(-c3cccc(F)c3)nc2c2ccccc21)NCc1ccc(Cl)cc1`: the survival is inactive: 55%.

Turning to `COc1cccc(NC(=O)Cn2c(=O)n(Cc3ccco3)c(=O)c3cc(OC)c(OC)cc32)c1`, the survival was inactive: 90%.

Turning to `COc1ccc(S(=O)(=O)N2CCC(C(=O)NC3CC3)CC2)cc1Cl`, the survival was inactive: 90%.

As for `Cc1ccn2c(Nc3ccccc3C)c(-c3ccccc3)nc2c1`, the survival was active: 0%.

`Cc1cccc(OCC(=O)Nc2ccccc2OCc2cc(=O)n3cc(C)ccc3n2)c1`: the survival was inactive: 94%.

On to `Cc1ccc(NC(=O)CSc2nnc(COc3ccc(Cl)cc3)o2)c(C)c1`, for which the survival was inactive: 47%.

`O=C(Nc1ccc2nc(SCC(=O)N3CCOCC3)sc2c1)c1ccccc1Cl`: the survival was inactive: 83%.

In the case of `CCn1ccc2cc(S(=O)(=O)N3CCC(C(=O)NCc4ccc(F)cc4)CC3)ccc21`, the survival is inactive: 85%.

For `Cc1ccc(NCc2cccn2-c2nnc(N3CCC(C(=O)NCc4ccc(F)cc4)CC3)s2)cc1`, the survival was inactive: 73%.

On to `CC1CCCCN1CCCNC(=O)Cn1ncc2c3ccccc3n(Cc3ccccc3F)c2c1=O` (stereo not drawn), for which the survival is inactive: 106%.

Turning to `COc1cc(Cl)c(NS(=O)(=O)c2ccc(-c3coc(C)n3)cc2)c(OC)c1`, the survival was inactive: 88%.

With `CCN(c1ncnc2c1cnn2-c1cccc(Cl)c1)C1CCCCC1`, the survival is inactive: 63%.

As to `Cc1ccc(-c2cc(C(F)(F)F)c(C#N)c(SCC(=O)Nc3ccccc3F)n2)cc1`, the survival was inactive: 55%.

Take `COc1cccc(CNC(=O)CN2C(=O)CSc3ccc(S(=O)(=O)N4CCCC4)cc32)c1`: the survival was inactive: 90%.

Consider `Cc1cc(C)c(NC(=O)CN2C(=O)CCSc3ccc(S(=O)(=O)N4CCCC4)cc32)c(C)c1`, for which the survival is inactive: 84%.

With `COCCn1c(C)cc(O)c(C(c2ccc(Cl)cc2)N2CCCCC2)c1=O` (stereo not drawn), the survival is inactive: 83%.

Regarding `COc1ccc(C2C(=O)N(C3CCCCC3)CC(=O)N2C2CCCCC2)cc1` (stereo not drawn), the survival was inactive: 87%.

As to `CSc1ccc(CNC(=O)Cn2ccc3cc(S(=O)(=O)N4CCCC4)ccc32)cc1`, the survival was inactive: 75%.

Consider `CC(C)CCNC(=O)CSc1nc2ccccc2nc1Cc1ccc(Cl)cc1`, for which the survival was inactive: 78%.

For `CCc1ccc(NC(=O)CSc2ccccn2)cc1`, the survival was inactive: 89%.

`CN(C)c1ccc(C(=O)NCc2ccc3c(c2)CCN3C(=O)c2ccccc2)cc1`: the survival is inactive: 91%.

Regarding `CC1CCN(c2nc(-c3ccc(Br)cc3)nc3ccccc23)CC1`, the survival was inactive: 82%.

For `CCN(C(=O)CC(C)C)c1nnc(-c2ccccc2C)s1`, the survival is inactive: 113%.

Regarding `Cc1cc(C)cc(NC(=O)CCN2C(=O)c3ccccc3Sc3ncccc32)c1`, the survival was inactive: 75%.

On to `O=C(Cn1c(=O)n(-c2ccccc2)c(=O)c2sc3ccccc3c21)NC1CCCC1`, for which the survival was inactive: 122%.

With `N#C/C(=C\c1ccc(Cl)cc1)c1nc(-c2cc3c(ccc4ccccc43)oc2=O)cs1`, the survival was inactive: 80%.

Turning to `CCOC(=O)C1C(=O)N(C(=O)c2cncc(Br)c2)CC1c1ccccc1` (stereo not drawn), the survival is inactive: 89%.
